Reference: patent publication US20140249076A1, “AMYLIN-CALCITONIN CHIMERIC PEPTIDES CONJUGATED TO DURATION ENHANCING MOIETIES” (AMYLIN PHARMACEUTICALS, LLC, priority 2011, published 2014)
At least one compound was matched to its structure with a doubt left. Numbered stars: 1 amine (or outer) side, 2 acyl side, 3 side chain; on linkers, the order of the positions; unused ones are H or OH. Bridge positions count the residues as written; N and C are the ends. Side chains are listed from the residue outwards. Peptide text beside a SMILES is read from it. * marks the point of attachment. γGlu = O=C(O)[C@H](CCC(=O)[*:2])N[*:1]; Palmitoyl = CCCCCCCCCCCCCCCC(=O)*

Legend:
Details in all cases: Table 8
Calcitonin receptor = target: T1, Calcitonin receptor (Rattus norvegicus, UniProt P32214); assay: Calcitonin receptor binding assay (125I-human calcitonin, C1a-HEK cell membranes)
T1 construct: expressed in transfected cells; host or cells: C1a-HEK cells (HEK cells stably expressing the receptor), membranes
T1 sequence (P32214 25-479 isoform P32214-2 limits assumed): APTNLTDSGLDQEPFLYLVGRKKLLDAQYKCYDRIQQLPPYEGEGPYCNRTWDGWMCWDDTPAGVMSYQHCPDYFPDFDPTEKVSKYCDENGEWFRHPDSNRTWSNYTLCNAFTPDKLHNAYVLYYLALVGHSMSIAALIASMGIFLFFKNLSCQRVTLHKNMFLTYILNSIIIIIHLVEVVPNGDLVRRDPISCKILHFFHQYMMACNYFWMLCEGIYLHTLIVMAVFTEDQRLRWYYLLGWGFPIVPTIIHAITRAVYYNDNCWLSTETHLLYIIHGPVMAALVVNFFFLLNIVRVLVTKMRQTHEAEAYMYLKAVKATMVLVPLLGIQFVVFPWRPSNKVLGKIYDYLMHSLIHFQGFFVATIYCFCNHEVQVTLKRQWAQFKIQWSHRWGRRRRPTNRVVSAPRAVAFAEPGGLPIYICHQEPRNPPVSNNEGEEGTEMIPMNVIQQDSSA
Experimental: (§1) Calcitonin receptor binding assay. C1a-HEK cell membranes can be incubated with approximately 50 μM (final concentration) of ^125I-human calcitonin (PerkinElmer, Waltham, Mass.) and increasing concentrations of test compound for 1 hour at ambient temperature in, for example, 96-well polystyrene plates. […] Dried glass fiber plates can be combined with scintillant and counted on a multiwell Perkin Elmer scintillation counter.
(§2) A variety of receptor binding and functional activity assays were conducted using the peptide conjugates described herein. Receptor binding activity can be expressed, for example in Table 6, as an IC50 value, calculated from the raw data using an iterative curve-fitting program using a 4-parameter logistic equation (PRISM®, GraphPAD Software, La Jolla, Calif.), as known in the art.
as §1, with “For the calcitonin” for “Calcitonin”, “assay,” for “assay.”, “were” for “can be”, “in” for “in, for example,”

CGRP receptor = target: T2, CGRP receptor (Homo sapiens, UniProt O60894+Q16602); assay: CGRP receptor binding assay (125I-human CGRP, SK-N-MC cell membranes)
T2 construct: SK-N-MC cell membranes were incubated; endogenous in cells; host or cells: SK-N-MC cells, membranes
T2 sequence (Q16602 23-461): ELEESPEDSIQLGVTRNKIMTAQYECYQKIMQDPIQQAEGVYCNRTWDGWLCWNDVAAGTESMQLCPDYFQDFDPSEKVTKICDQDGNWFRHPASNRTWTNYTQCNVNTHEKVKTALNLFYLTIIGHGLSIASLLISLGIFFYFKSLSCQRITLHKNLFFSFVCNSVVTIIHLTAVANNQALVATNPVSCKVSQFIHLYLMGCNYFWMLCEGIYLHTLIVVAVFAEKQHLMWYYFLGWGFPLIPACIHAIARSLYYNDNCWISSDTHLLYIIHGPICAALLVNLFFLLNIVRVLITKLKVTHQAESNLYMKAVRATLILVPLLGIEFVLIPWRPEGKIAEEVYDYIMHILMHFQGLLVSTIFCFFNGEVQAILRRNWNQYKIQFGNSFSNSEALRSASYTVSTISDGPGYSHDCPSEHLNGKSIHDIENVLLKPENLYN
T2 sequence (O60894 27-148): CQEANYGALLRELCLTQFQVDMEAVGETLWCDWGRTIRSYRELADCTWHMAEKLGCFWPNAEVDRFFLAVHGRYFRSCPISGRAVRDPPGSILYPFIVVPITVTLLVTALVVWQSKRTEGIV

Amylin receptor = target: T3, Amylin receptor (Rattus norvegicus, UniProt P32214); assay: Amylin receptor binding assay (125I-rat amylin, RNA membranes)
T3 construct: from tissue; read as rat nucleus accumbens membranes
T3 sequence (P32214 25-516): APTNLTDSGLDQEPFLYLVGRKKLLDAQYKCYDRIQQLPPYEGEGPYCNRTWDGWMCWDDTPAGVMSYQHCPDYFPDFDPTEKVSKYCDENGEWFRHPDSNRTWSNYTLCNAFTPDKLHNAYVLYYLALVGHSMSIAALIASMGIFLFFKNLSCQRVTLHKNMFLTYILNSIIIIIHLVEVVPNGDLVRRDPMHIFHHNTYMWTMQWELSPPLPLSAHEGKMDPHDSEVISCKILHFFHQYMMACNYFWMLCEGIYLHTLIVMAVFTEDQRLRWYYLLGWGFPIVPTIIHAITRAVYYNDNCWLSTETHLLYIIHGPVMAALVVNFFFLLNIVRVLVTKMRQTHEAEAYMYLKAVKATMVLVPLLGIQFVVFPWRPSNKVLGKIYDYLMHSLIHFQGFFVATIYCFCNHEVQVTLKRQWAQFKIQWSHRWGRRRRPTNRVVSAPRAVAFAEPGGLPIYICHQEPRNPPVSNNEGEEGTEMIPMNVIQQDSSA
T3 sequence (Q9JJ74 27-148 partner): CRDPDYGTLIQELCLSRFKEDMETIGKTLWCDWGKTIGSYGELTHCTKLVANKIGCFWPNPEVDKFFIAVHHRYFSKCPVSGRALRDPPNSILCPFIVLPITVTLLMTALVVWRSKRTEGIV
Experimental: as §1, with “Amylin” for “Calcitonin”, “RNA” for “C1a-HEK cell”, “[…]” for “50”, “^125I-rat amylin (Bolton-Hunter labeled, PerkinElmer,” for “^125I-human calcitonin (PerkinElmer,”, “multi-well” for “multiwell”
as §2
For the amylin receptor binding assay, RNA membranes were incubated with approximately […] (final concentration) of ^125I-rat amylin (Bolton-Hunter labeled, PerkinElmer, Waltham, Mass.) and increasing concentrations of test compound for 1 hour at ambient temperature in 96-well polystyrene plates. […] Dried glass fiber plates were combined with scintillant and counted on a multi-well Perkin Elmer scintillation counter, as well known in the art.

Row | Compound | IC50 (Calcitonin receptor) | IC50 (CGRP receptor) | IC50 (Amylin receptor)
1 | CCCCCCCCCCCCCCCC(=O)N[C@@H](CCC(=O)NCCCC[C@H](NC(=O)[C@H](Cc1c[nH]cn1)NC(=O)[C@H](CC(C)C)NC(=O)[C@H](CCC(=O)O)NC(=O)[C@H](CCC(N)=O)NC(=O)[C@H](C)NC(=O)[C@H](CC(C)C)NC(=O)[C@H](CCCNC(=N)N)NC(=O)[C@H](CCC(N)=O)NC(=O)[C@H](CC(C)C)NC(=O)[C@H](C)NC(=O)[C@@H]1CSSC[C@H](NC(=O)[C@@H](N)CCCCN)C(=O)N[C@@H](CC(N)=O)C(=O)N[C@@H]([C@@H](C)O)C(=O)N[C@@H](C)C(=O)N[C@@H]([C@@H](C)O)C(=O)N1)C(=O)N[C@@H](CC(C)C)C(=O)N[C@@H](CCC(N)=O)C(=O)N[C@H](C(=O)N[C@@H](Cc1ccc(O)cc1)C(=O)N1CCC[C@H]1C(=O)N[C@@H](CCCNC(=N)N)C(=O)N[C@H](C(=O)N[C@@H](CC(N)=O)C(=O)N[C@H](C(=O)NCC(=O)N[C@@H](CO)C(=O)N[C@@H](CC(N)=O)C(=O)N[C@H](C(=O)N[C@@H](Cc1ccc(O)cc1)C(N)=O)[C@@H](C)O)C(C)C)[C@@H](C)O)[C@@H](C)O)C(=O)O [Cmpd 186, [K^18ε-(γ-Glu(Nα-C16-Chain))]-Cmpd 17] (H-KCNTATCALQRLAQELHK([γGlu-Palmitoyl])LQTYPRTNVGSNTY-NH2; disulfide 2-7 (inferred); N-terminus assumed) | 1.07 nM | 26.3 nM | 0.806 nM
2 | CCCCCCCCCCCCCCCC(=O)N[C@@H](CCC(=O)NCCCC[C@H](NC(=O)[C@H](CCC(N)=O)NC(=O)[C@H](CC(C)C)NC(=O)[C@H](CCCNC(=N)N)NC(=O)[C@H](Cc1c[nH]cn1)NC(=O)[C@H](CC(C)C)NC(=O)[C@H](CCC(=O)O)NC(=O)[C@H](CCC(N)=O)NC(=O)[C@H](C)NC(=O)[C@H](CC(C)C)NC(=O)[C@H](CCCNC(=N)N)NC(=O)[C@H](CCC(N)=O)NC(=O)[C@H](CC(C)C)NC(=O)[C@H](C)NC(=O)[C@@H]1CSSC[C@H](NC(=O)[C@@H](N)CCCCN)C(=O)N[C@@H](CC(N)=O)C(=O)N[C@@H]([C@@H](C)O)C(=O)N[C@@H](C)C(=O)N[C@@H]([C@@H](C)O)C(=O)N1)C(=O)N[C@@H](Cc1ccc(O)cc1)C(=O)N1CCC[C@H]1C(=O)N[C@@H](CCCNC(=N)N)C(=O)N[C@H](C(=O)N[C@@H](CC(N)=O)C(=O)N[C@H](C(=O)NCC(=O)N[C@@H](CO)C(=O)N[C@@H](CC(N)=O)C(=O)N[C@H](C(=O)N[C@@H](Cc1ccc(O)cc1)C(N)=O)[C@@H](C)O)C(C)C)[C@@H](C)O)C(=O)O [Cmpd 187, [K^21ε-(γ-Glu(Nα-C16-Chain))]-Cmpd 17] (H-KCNTATCALQRLAQELHRLQK([γGlu-Palmitoyl])YPRTNVGSNTY-NH2; disulfide 2-7 (inferred); N-terminus assumed) | 0.151 nM | 0.77 nM | 0.446 nM
